Laboratory results reported in PubChem BioAssay AID1347165 (National Center for Advancing Translational Sciences (NCATS), 2019).
Where “and” joins values, the source holds several entries; their conditions need not be identical. Equal entries are not always repeated. The campaign covered roughly 220,000 compounds. About 5,700 (2.6%) were called active. Inconclusive means that the source gave no clear call. Such entries were picked first, then a sample of the others. Calls come from the whole dose curve; as a rule, active = well fitted inhibition curve with a large enough effect; inconclusive = small, poorly fitted or top-dose-only effect; inactive = no such curve, though single readings can be large or run the other way. Potencies of inconclusive entries are doubtful fits and often do not repeat.

These compounds were tested against Lysine-specific demethylase 5B (Homo sapiens) (UniProt Q9UGL1) (assay: Primary screen for KDM5B Histone Demethylases FDH-coupled qHTS). Conditions: FDH-coupled NADH fluorescence (FDH is formaldehyde dehydrogenase); activity change, negative = inhibition: at 57.7 µM (top of the series) unless noted.
Chain of UniProt Q9UGL1 (Q9UGL1 whole entry, looked up): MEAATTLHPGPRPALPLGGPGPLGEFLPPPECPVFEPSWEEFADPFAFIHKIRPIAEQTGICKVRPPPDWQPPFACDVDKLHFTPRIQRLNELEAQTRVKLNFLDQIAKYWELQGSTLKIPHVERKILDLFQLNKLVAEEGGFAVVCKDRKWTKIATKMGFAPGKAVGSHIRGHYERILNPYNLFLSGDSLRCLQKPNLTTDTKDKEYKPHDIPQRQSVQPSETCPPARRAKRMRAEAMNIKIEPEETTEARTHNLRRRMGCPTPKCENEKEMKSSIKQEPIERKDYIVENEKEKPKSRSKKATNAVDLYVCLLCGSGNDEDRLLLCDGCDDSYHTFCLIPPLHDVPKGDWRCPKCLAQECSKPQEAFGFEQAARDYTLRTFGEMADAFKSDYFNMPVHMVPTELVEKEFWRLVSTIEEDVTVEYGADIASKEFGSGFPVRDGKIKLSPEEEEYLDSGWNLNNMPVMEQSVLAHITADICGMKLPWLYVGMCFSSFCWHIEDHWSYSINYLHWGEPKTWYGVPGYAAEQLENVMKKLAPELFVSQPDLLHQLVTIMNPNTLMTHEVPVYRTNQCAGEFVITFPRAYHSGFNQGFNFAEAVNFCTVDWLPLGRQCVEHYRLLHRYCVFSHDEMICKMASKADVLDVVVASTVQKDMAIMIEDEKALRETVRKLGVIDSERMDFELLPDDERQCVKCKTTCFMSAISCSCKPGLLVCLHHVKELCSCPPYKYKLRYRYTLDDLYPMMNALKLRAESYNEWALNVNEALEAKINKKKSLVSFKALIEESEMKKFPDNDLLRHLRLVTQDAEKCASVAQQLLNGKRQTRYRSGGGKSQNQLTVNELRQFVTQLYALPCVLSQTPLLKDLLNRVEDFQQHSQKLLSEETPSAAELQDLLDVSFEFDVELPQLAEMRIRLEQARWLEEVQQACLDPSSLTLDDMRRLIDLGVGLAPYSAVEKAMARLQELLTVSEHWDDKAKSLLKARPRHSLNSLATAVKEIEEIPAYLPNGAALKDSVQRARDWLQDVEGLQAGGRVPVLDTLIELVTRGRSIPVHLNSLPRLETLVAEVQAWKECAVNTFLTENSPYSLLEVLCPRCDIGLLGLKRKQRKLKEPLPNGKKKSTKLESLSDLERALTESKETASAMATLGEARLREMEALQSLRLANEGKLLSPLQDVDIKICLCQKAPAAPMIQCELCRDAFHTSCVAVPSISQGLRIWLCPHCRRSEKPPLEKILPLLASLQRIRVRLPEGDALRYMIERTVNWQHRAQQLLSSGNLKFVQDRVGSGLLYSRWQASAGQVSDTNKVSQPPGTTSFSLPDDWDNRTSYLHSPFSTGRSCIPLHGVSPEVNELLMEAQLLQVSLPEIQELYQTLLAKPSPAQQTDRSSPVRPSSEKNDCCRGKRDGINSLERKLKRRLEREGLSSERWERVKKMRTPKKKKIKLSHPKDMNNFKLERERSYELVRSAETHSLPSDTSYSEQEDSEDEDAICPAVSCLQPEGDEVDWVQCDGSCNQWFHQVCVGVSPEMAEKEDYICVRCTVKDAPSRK
In short: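 Compound dilutions met 200 nM (final) KDM5BΔAP for 10 min at room temperature before substrate addition. The substrate mix held 12.5 µM H3K4me3 with cofactors 25 µM α-ketoglutarate and 50 µM Fe²⁺. NADH signal gain over 30 min defined activity.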
Note: nearly all actives have a fitted effect of over 70% in size.
Potency is the fitted concentration of half-maximal effect; tags give direction and shape of the fitted curve.
Throughout, for activity change, negative = inhibition: 0% is about no effect.

SMILES	activity change, negative = inhibition	Potency
CC(C)c1ccc(C(=O)NC(C)c2ccccc2F)cc1 (stereo not given)	inactive: 17.7%	–
COc1ccc(CCC(=O)NC2CCN(C(=O)c3cc4c(=O)[nH]c(C)cn4n3)CC2)cc1	–	inconclusive: 28.2 µM [inhibitor, single point]
CN1CC(=O)N(C2CCC2)Cc2c(NCCc3ccc(Cl)cc3)ncnc21	inactive: -14.5%	–
Nc1ccc2oc(-c3ccccc3Br)nc2c1	–	inconclusive: 35.5 µM [inhibitor, single point]
CCn1c(CSc2nnc(-c3ccncc3)n2C)nc2cc(C(=O)O)ccc21	–	inconclusive: 17.8 µM [inhibitor, partial curve, poor fit]
O=C(CCc1c(-c2ccc(F)cc2)[nH]c2ccccc12)NC1CC1	–	inconclusive: 25.1 µM [inhibitor, partial curve, poor fit]
COc1cc(OC)c(CN2CCCCCC2c2ccco2)c(OC)c1 (stereo not given)	–	inconclusive: 8.91 µM [inhibitor, partial curve]
O=C(C1[C@H]2CNC[C@@H]12)N1CCC(c2nccn2Cc2ccncc2)CC1 (stereo not given in full)	–	inconclusive: 2 µM [inhibitor, full curve]
O=C(Cc1ccc(Br)cc1)N1CCCN(c2cc(-c3ccc(F)cc3)[nH]n2)CC1	–	inconclusive: 14.1 µM [inhibitor, partial curve]
CN(C)C(=O)c1ccc(OC2CCN(C(=O)c3ccccc3F)CC2)nc1	inactive: 25.5%	–
COc1ccc(CNCCC(c2ccc(C)cc2)c2ccco2)cc1 (stereo not given)	–	inconclusive: 20 µM [inhibitor, partial curve, poor fit]
O=C(Nc1noc2ccccc12)c1cccc(Cl)c1Cl	inactive: 2.4%	–
CCOc1ccccc1Oc1c(C)oc2cc(O)ccc2c1=O	–	inconclusive: 2 µM [inhibitor, full curve, poor fit]
Cc1cccc(OCC(=O)Nc2ccc(S(=O)(=O)Nc3onc(C)c3C)cc2)c1C	–	inconclusive: 15.8 µM [inhibitor, partial curve, poor fit]
COCCN1CCCCCC(O)c2cc(C(=O)NCc3ccc(C)o3)ccc21 (stereo not given)	–	inconclusive: 25.1 µM [inhibitor, partial curve, poor fit]
Cc1cc(OCC(=O)N(Cc2ccc(N(C)C)cc2)Cc2ccco2)cc(C)c1Cl	–	inconclusive: 31.6 µM [inhibitor, single point]
CCOC(=O)c1ccc(OC(=O)c2cn(-c3ccc(C)cc3)c(=O)c3ccccc23)cc1	–	inconclusive: 17.8 µM [inhibitor, single point]
Cc1nnc(SCC(=O)c2ccccc2F)n1Cc1ccccc1	–	inactive
CN(C)c1cc(N2CCCC(NC(=O)c3ccccn3)C2)ncn1 (stereo not given)	inactive: 16.7%	–
COc1ccccc1NC(=O)Cn1cnc2ccc(S(=O)(=O)N3CCC(C)CC3)cc2c1=O	–	inconclusive: 44.7 µM [inhibitor, single point]
Cc1cc(N2CCOCC2)nc(Nc2ccc(NC(=O)CC3CCCC3)cc2)n1	inactive: -2.59%	–
Cc1csc(SCC(=O)Nc2ccccc2C(N)=O)n1	inactive: 8.4%	–

SMILES	activity change, negative = inhibition	Potency
COc1ccc(N(CC(=O)N2CCN(c3ccccc3F)CC2)S(=O)(=O)c2c(C)noc2C)cc1	–	inconclusive: 15.8 µM [inhibitor, partial curve, poor fit]
COc1cc(C(=O)NC2CCN(c3cc(-c4ccccc4)[nH]n3)C2)cc(OC)c1OC (stereo not given)	–	inconclusive: 12.6 µM [inhibitor, partial curve, poor fit]
COc1ccccc1-c1nc2c(c(SCc3cc(C)ccc3C)n1)Cc1c(CO)cnc(C)c1O2	–	inconclusive: 3.16 µM [inhibitor, partial curve, poor fit]
Cc1ccc(CNC(=O)c2cc3c(=O)oc4ccc(C)cc4c3s2)cc1	–	inconclusive: 3.16 µM [inhibitor, full curve, poor fit]
Cc1nn(C)cc1CN(C)C(=O)c1cn2ccnc(-c3ccccc3)c2n1	–	inconclusive: 12.6 µM [inhibitor, partial curve]
COc1ccc(NC(=O)N2CCc3c(nc4cc(-c5ccccc5)[nH]n4c3=O)C2)c(C)c1	–	active: 20 µM
CCCNC(=O)Cn1nc(-c2ccc(C)c(C)c2)c2cnc3ccc(OC)cc3c21	–	inconclusive: 20 µM [inhibitor, single point]
O=C1CN(C(=O)COC(=O)c2ccc([N+](=O)[O-])o2)c2ccccc2N1	–	inconclusive: 17.8 µM [inhibitor, partial curve, poor fit]
O=C1Cc2c(-c3ccc(C(=O)N4CCOCC4)cc3)n[nH]c2CN1Cc1ccccc1	inactive: -16.3% [at 86.2 µM]	–
CCOC(=O)c1ccc(N2CC3=C(C2=O)C(c2ccc(OC)cc2)NC(=O)N3C)cc1 (stereo not given)	–	inconclusive: 35.5 µM [inhibitor, partial curve, poor fit] and inconclusive: 1.78 µM [inhibitor, partial curve, poor fit]
COC(=O)c1ccc(/C=C(/Cl)c2ncc(-c3ccc(Cl)cc3)o2)cc1	–	inconclusive: 1.78 µM [inhibitor, full curve, poor fit]
CC(=O)N1CCN(C(=O)c2cc3ccccc3[nH]c2=O)CC(O)C1 (stereo not given)	–	active: 28.2 µM
COc1ccc2oc(-c3ccc(C)cc3)cc(=O)c2c1	–	inconclusive: 22.4 µM [inhibitor, partial curve, poor fit]
O=C(COc1ccccc1)N1CC2CC(C1)[C@H]1CCCC(=O)N1C2 (stereo not given in full)	inactive: -0.225%	–
O=C(NCc1cccc(F)c1)c1nc2c(o1)CCN(Cc1ccc3[nH]ccc3c1)CC2	–	inconclusive: 44.7 µM [inhibitor, partial curve, poor fit]
CCCCC(=O)Nc1ccc2oc(-c3ccc(F)cc3Cl)nc2c1	–	inconclusive: 1.78 µM [inhibitor, partial curve, poor fit]
CCCn1c(=O)n(CC(=O)Nc2ccc(C(C)CC)cc2)c(=O)c2c1nc(C)n2CCOC (stereo not given)	inactive: -8.76%	–
COc1ccc2cc(C3CC(c4cccs4)=NN3C(C)=O)c(Cl)nc2c1 (stereo not given)	–	inconclusive: 31.6 µM [inhibitor, partial curve, poor fit]
COCCNC(=O)c1ccc2c(c1)N(C)C(CC(=O)N1CCC(N)CC1)CO2 (stereo not given)	–	active: 28.2 µM
Cc1ccccc1Nc1sc(C(=O)c2ccccc2)c(N)c1S(C)(=O)=O	–	inconclusive: 44.7 µM [inhibitor, single point]
Cc1ccccc1C(=O)N(C)[C@H]1C[C@H]2c3[nH]c4c(-c5ccccc5)cccc4c3CCN2C[C@H]1[C@H](C)O	–	inconclusive: 20 µM [inhibitor, partial curve, poor fit]
COc1cccc(NC(=O)Cn2c(=O)n(-c3ccccc3)c(=O)c3ccc(C(=O)NCc4ccc5c(c4)OCO5)cc32)c1	–	inconclusive: 7.94 µM [inhibitor, partial curve, poor fit]

SMILES	activity change, negative = inhibition	Potency
CN1CCCCCC(O)c2cc(C(=O)N3CCN(Cc4ccccc4)CC3)ccc21 (stereo not given)	inactive: -7.88%	–
CNC1CCN(c2ccc(-c3nc(CCCc4ccccc4)no3)cn2)CC1	–	inconclusive: 20 µM [inhibitor, partial curve, poor fit]
COc1nc(-c2ccc(C)cc2)ccc1-c1noc(C)n1	–	inconclusive: 20 µM [inhibitor, partial curve, poor fit]
CCN(CC)S(=O)(=O)c1ccc(S(=O)(=O)Nc2ccc(SC#N)cc2F)cc1	–	inconclusive: 39.8 µM [inhibitor, single point]
CCNC(=S)NNC(=O)C1CCCC1	inactive: 25%	–
C[S+](=O)([O-])N1CC2ON=C(C(=O)NCc3ccc(F)cc3)C2C1 (stereo not given)	inactive: 31.2% [at 115 µM]	–
COc1ccc(NC(=O)C23CCC(=O)N2c2ccccc2C(=O)N3)cc1Cl (stereo not given)	–	inconclusive: 39.8 µM [inhibitor, single point]
COc1ccccc1C(=O)Nc1ccccc1C(C)C	inactive: 16.3%	–
O[C@@H]1CCN(Cc2nc(C3(O)CCN(CC4CC4)CC3)cs2)C1	inactive: 10.3% [at 86.2 µM]	–
COc1ccccc1NC(=O)c1oc2ccccc2c1NC(=O)Cc1cccs1	–	inconclusive: 2.24 µM [inhibitor, full curve, poor fit]
CN(C)c1ccc(C=Nc2ccc(Nc3ccccc3)cc2)cc1	–	inconclusive: 11.2 µM [inhibitor, partial curve, poor fit]
Cc1cc(C)c2c(CN3CCN(Cc4ccccc4)CC3)cc(=O)oc2c1	–	inconclusive: 39.8 µM [inhibitor, single point]
CCOC(=O)N(C)CC(=O)NC1CCCC1	inactive: -2.19%	–
Nc1c(C(=O)Nc2ccc(C(F)(F)F)cc2)sc2nc(-c3cccs3)ccc12	–	inconclusive: 15.8 µM [inhibitor, partial curve, poor fit]
COc1ccc(Cl)cc1NC(=O)N1CC(C)Oc2ccc(C)cc21 (stereo not given)	inactive: -5.01%	–
CCN1CC2(CCN(C(=O)c3cnc4c(O)cccn4c3=O)CC2)OC1=O	–	active: 31.6 µM
O=C(Cn1ccn2nc(-c3ccc(F)cc3)c(CO)c2c1=O)NCCc1ccc(Cl)cc1	–	inconclusive: 28.2 µM [inhibitor, single point]
COc1ccccc1-c1nnc(C2CCN(S(=O)(=O)c3ccc(CC(C)C)cc3)CC2)o1	–	inconclusive: 35.5 µM [inhibitor, single point]
O=S(=O)(c1cccnc1)N1CC(c2noc(C3CCCN3CC3CC3)n2)C1 (stereo not given)	–	inconclusive: 22.4 µM [inhibitor, partial curve, poor fit]
CC(C)C(=O)N1Cc2ccccc2CC2(CCCN(Cc3ccncc3)C2)C1 (stereo not given)	–	inconclusive: 50.1 µM [inhibitor, partial curve]
NS(=O)(=O)CCCC(=O)O	inactive: -14.5%	–
